# Data published in article PMC4336329 (PLoS ONE, 2015).
# The campaign covered roughly 310,000 compounds. About 2,200 (0.71%) showed an effect of 50% or more. The effect is printed as a negative number. Some of the results follow.
# Target: human ether-à-go-go-related gene (hERG) potassium channel (human, UniProt Q12809)
# Experiment: primary screen, population patch clamp on CHO cells stably expressing hERG
# Chain of human ether-à-go-go-related gene (hERG) potassium channel (Q12809 whole entry, looked up): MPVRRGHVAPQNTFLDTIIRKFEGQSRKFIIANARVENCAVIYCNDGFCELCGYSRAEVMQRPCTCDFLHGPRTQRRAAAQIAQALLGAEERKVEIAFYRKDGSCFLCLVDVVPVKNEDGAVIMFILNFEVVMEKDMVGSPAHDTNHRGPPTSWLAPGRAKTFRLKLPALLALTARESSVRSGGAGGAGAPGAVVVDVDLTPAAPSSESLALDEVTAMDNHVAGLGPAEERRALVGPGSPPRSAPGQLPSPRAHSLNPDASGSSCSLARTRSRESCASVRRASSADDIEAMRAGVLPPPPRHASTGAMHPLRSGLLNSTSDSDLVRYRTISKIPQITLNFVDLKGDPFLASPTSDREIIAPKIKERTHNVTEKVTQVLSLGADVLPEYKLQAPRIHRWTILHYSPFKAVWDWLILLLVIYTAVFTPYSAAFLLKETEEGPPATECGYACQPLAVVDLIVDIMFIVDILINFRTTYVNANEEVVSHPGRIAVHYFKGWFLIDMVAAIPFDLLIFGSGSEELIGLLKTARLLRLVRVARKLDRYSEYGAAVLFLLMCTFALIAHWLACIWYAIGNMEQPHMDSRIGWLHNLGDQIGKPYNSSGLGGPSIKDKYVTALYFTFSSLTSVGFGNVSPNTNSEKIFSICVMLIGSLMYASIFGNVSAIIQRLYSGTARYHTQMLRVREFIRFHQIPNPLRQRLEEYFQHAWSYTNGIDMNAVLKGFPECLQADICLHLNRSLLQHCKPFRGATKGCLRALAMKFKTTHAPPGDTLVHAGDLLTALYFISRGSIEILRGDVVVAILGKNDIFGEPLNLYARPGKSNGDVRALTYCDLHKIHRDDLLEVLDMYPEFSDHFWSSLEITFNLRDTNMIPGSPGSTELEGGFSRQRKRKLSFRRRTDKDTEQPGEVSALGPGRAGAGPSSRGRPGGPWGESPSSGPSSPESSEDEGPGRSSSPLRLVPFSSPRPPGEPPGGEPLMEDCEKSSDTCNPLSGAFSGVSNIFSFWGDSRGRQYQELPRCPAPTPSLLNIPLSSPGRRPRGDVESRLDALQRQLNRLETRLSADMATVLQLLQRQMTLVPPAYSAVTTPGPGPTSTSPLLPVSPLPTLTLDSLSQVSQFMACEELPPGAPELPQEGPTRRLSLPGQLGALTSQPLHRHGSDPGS
row,SMILES,"hERG current change (%, negative = inhibition) at 1uM [%]"
1,CCOc1ccc(-c2cc(C(=O)O)c3ccccc3n2)c(OCC)c1,17.7
2,COc1ccc(/C=C/C(=O)CC(O)(c2ccccc2)C(F)(F)F)cc1 (stereo not drawn),8.29
3,N/C(=N\OC(=O)COc1ccc([N+](=O)[O-])cc1)c1cccnc1,6.39
4,O=C(Nc1nccs1)C1(S(=O)(=O)c2ccc(Cl)cc2)CC1,5.54
5,O=C(COc1ccc(C(=O)c2ccccc2)cc1)NCC(=O)Nc1ccccc1Br,4.33
6,c1ccc(CC(NCc2ccco2)c2ccccc2)cc1 (stereo not drawn),14.5
7,COc1ccc(-c2noc(C(=O)NCc3ccccc3Cl)n2)cc1OC,3.53
8,O=C(CSc1nc2ncccc2[nH]1)Nc1c(F)cc(F)cc1Br,14.6
9,CCOC(=O)Cn1nnnc1CN(CCc1ccccc1)Cc1cc2cc(CC)ccc2[nH]c1=O,9.08
10,COc1ccc(S(=O)(=O)N2CCCCC2)cc1NC(=O)[C@@H]1CCCN1C(=O)c1cccs1,3.66
11,CCOC(=O)N1CCN(S(=O)(=O)c2ccc(F)c(C(=O)Nc3ccc(C)c(Cl)c3)c2)CC1,10.9
12,O=C(/C(=C/c1ccc(Cl)cc1)c1nc2ccccc2[nH]1)c1ccccc1,7.29
13,C=CCNC(=S)Nc1sc2c(c1C(N)=O)CCCC2,12.6
14,CCOC(=O)C1=C(C)N(c2ccc(OC)cc2)C(=O)/C1=C\c1cccs1,4.07
15,CNC(=S)N/N=C/c1cn(Cc2ccc(F)cc2)c2ccccc12,3.49
16,CN(C)C(=O)CSc1ncnc2scc(-c3ccccc3)c12,4.5
17,CCOC(=O)c1ccc(N2C(=O)CC(Sc3nc(C)cc(C)n3)C2=O)cc1 (stereo not drawn),16.6
18,C#CCOc1coc(COC(=O)c2ccccc2)cc1=O,6.3
19,COCC(=O)N(CCc1ccc(OC)c(OC)c1)Cc1cc2cc(C)ccc2nc1Cl,8.73
20,Cc1c(C(=O)Nc2nnc(C(F)(F)F)s2)oc2ccccc12,9.97
21,N#Cc1ccccc1OCC(=O)Nc1cccc(S(=O)(=O)N2CCCCCC2)c1,-8.66
22,Cc1cc(C)nc(/N=C(\N)Nc2ccc(OCCC(C)C)cc2)n1,-55.9

row,SMILES,"hERG current change (%, negative = inhibition) at 1uM [%]"
1,Cc1cc(=O)c(C(=O)O)nn1-c1ccccc1C(F)(F)F,7.89
2,O=C(CSc1ncc(-c2ccccc2)n1C1CCCC1)N1CCc2ccccc21,11
3,O=Cc1cn(CCOc2ccccc2)c2ccccc12,11.9
4,Cc1ccc(-n2c(SCc3ccc(C(=O)O)cc3)nnc2-c2ccncc2)cc1,11.3
5,CCCn1nnc(NCc2ccc(OCc3cccs3)c(OC)c2)n1,12.4
6,CCCCNC(=O)C1(NC(=O)Nc2ccccc2)CCCCC1,5.83
7,CC(C)[C@H](NC(=O)OCc1ccccc1)C(=O)OCC(=O)NCCc1ccccc1,11.6
8,COCCNC(=O)c1ccc2c(c1)nc(C)n2-c1cc(OC)c(OC)c(OC)c1,5.83
9,O=C(C1CC1)N1N=C(c2ccccc2)CC1(O)C(F)(F)F (stereo not drawn),13.1
10,Cc1cccc(NC(=O)COn2nnc3ccc(S(C)(=O)=O)cc32)c1,16
11,Cn1c(=O)c2c(nc(NCC3CCCO3)n2Cc2ccccc2)n(C)c1=O (stereo not drawn),7.3
12,COc1ccccc1C1(CCNS(=O)(=O)c2ccc(C)cc2)CCOC(C(C)C)C1 (stereo not drawn),15.8
13,CCOC(=O)c1c(C)[nH]c(NC(=O)NNC(=O)c2ccccc2Cl)c1C,13.9
14,COCCCNC(=O)/C(C#N)=C/c1c(N2CCCCCC2)nc2ccccn2c1=O,14.8
15,Cc1onc(-c2c(Cl)cccc2Cl)c1C(=O)NCC1CCCO1 (stereo not drawn),14.4
16,O=C(CCN1C(=O)/C(=C/c2ccc(Cl)cc2)SC1=S)Nc1ccc(C(=O)O)cc1,5.96
17,NS(=O)(=O)c1ccc(S(=O)(=O)c2ccccc2)nc1,1.95
18,O=Cc1cn(CC(O)CN2CCCCC2)c2ccccc12 (stereo not drawn),-6.34
19,COc1ccc(S(N)(=O)=O)cc1C(=O)NCCCN1CCN(c2cccc(Cl)c2)CC1.CS(=O)(=O)O,-8.1
20,COc1ccc(/C=N/NC(=O)c2ccco2)cc1Cn1nc(C)c([N+](=O)[O-])c1C,1.19
21,COc1ccc(N2CCN(C(=O)C(=O)c3cn(CC(=O)N4CCOCC4)c4ccccc34)CC2)cc1,-0.408
22,Cc1cc(C)nc(SC2CC(=O)N(c3ccc(Cl)cc3)C2=O)n1 (stereo not drawn),2.32

row,SMILES,"hERG current change (%, negative = inhibition) at 1uM [%]"
1,Brc1ccc2[nH]c3c(N4CCc5ccccc5C4)ncnc3c2c1,8.07
2,CN1C2CCC1/C(=C\c1ccccc1)C(=O)/C2=C\c1ccccc1,9.24
3,O=C(CSc1nc2c(cnn2-c2ccccc2)c(=O)[nH]1)N1N=C(c2cccs2)CC1c1ccc(F)cc1 (stereo not drawn),13.9
4,COc1cc(C2C(C(=O)c3ccco3)=C(O)C(=O)N2CCc2ccccc2)ccc1O (stereo not drawn),11.4
5,Cc1cc(C(=O)COC(=O)CNC(=O)c2ccco2)c(C)n1Cc1ccco1,10.3
6,O=S1(=O)CCN(OCc2ccc(Cl)cc2)CC1,8.98
7,CCn1c(NC(=S)Nc2ccccc2)nc2ccccc21,9.97
8,Cc1cccc(OCC(=O)Nc2ccc3nc(C)sc3c2)c1,14.1
9,CC1CCCC(C)N1C(=O)COC(=O)Cc1ccc(F)cc1 (stereo not drawn),22.5
10,CN(CCC1CCCCO1)Cc1cn(C)nc1-c1ccc2c(c1)OCCO2 (stereo not drawn),14.1
11,CCOc1ccc(NC(=S)N2CCC(c3nc4ccccc4[nH]3)CC2)cc1,-0.321
12,Cc1cc(C)c(N=Cc2c(O)n(-c3nccs3)c(=O)c3ccccc23)c(C)c1,-2.68
13,CC(Oc1ccccc1)C(=O)NNC(=O)c1ccccn1 (stereo not drawn),-0.816
14,COc1ccc(C(=O)c2ccccc2)cc1,12.5
15,CC(C)(C)NC(=O)C(c1ccco1)N(Cc1ccc2c(c1)OCO2)C(=O)c1snc(C(N)=O)c1N (stereo not drawn),9.28
16,CCOc1ccc(C(c2c(C)[nH][nH]c2=O)c2c(C)[nH][nH]c2=O)cc1OCC,4.24
17,OCc1nc2ccccc2n1Cc1c(F)cccc1Cl,5.54
18,COC(=O)c1ccc(COc2cc(O)c3c(c2)OC(C)(C)CC3=O)cc1,9.66
19,O=C(O)c1c(NC(=O)N(CCO)Cc2ccccc2)sc2c1CCCC2,12.9
20,CC(=O)c1ccc(N2CCN(C(=O)CCc3ccccc3)CC2)cc1,-5.53
21,CCOC(=O)C1CCCN(S(=O)(=O)c2ccc(Br)s2)C1 (stereo not drawn),0.414
22,O=C(Nc1ccc2c(c1)OCO2)c1ccc[n+]([O-])c1,24.4

row,SMILES,"hERG current change (%, negative = inhibition) at 1uM [%]"
1,Cc1ccc(S(=O)(=O)N2[C@@H](c3ccc(F)cc3)C(C(=O)O)=CC[C@H]2c2ccc3c(c2)OCO3)cc1,8.19
2,CN(C)C(=S)NC(=O)C12CC3CC(C)(CC(C)(C3)C1)C2,11.5
3,O=C(CC1C(=O)NCCN1Cc1cccc(F)c1F)NCCCC1CCCC1 (stereo not drawn),11.5
4,Cc1cc(C)c(C)c(OCCOCCNCc2ccccc2)c1.O=C(O)C(=O)O,-0.588
5,CCCc1ccc(S(=O)(=O)NCC2CCCN2CC)cc1 (stereo not drawn),-7.03
6,Cc1ccc(NC(=O)c2ccccc2NC(=O)CCC(=O)O)cc1,6.21
7,Cc1ccc(NC(=O)c2cccc3ccccc23)cc1,11.9
8,CCS(=O)(=O)N1CCC(C(=O)N2CCC3(CC2)OCCO3)CC1,9.99
9,Cc1cc(C)n(-c2nc(NCC(C)O)c3c4c(sc3n2)COC(C)(C)C4)n1 (stereo not drawn),14.2
10,Cn1nc(NC(=O)C(C)(C)C)c2c(F)cccc21,3.94
11,COc1cccc2cc(C(=O)N3CCN(c4ccccn4)CC3)c(=O)oc12,11.8
12,CCOc1ccc2c(c1)OC(c1ccc(C)cc1)(C(F)(F)F)NC2=O (stereo not drawn),11.9
13,CC(CCc1ccco1)NC(=O)CCc1nnc2ccc(NCc3ccccc3)nn12 (stereo not drawn),11.8
14,COc1cccc(NC(=O)COc2cccc(-n3cnnn3)c2)c1,-22.8
15,Cn1c(CNC(=O)c2ccccc2F)nnc1SCc1nc2ccccc2c(=O)[nH]1,-1.67
16,CC(=O)Oc1ccc2oc(C)c(C(=O)N3CCOCC3)c2c1,4.52
17,CCOc1ccccc1OCC(=O)OCC(=O)Nc1ncc(Cl)cc1Cl,7.2
18,COCCn1c(=NC(=O)c2ccc(S(=O)(=O)N3CCc4ccccc4C3)cc2)sc2cc(OC)ccc21,7.57
19,CCc1cc(C(=O)NCC(C)(C)N2CCOCC2)sc1C,17
20,COc1ccccc1-c1nnc(SCC(=O)NNC(=O)c2ccccc2F)n1C,4.38
21,CC(OC(=O)c1nccnc1N)C(=O)Nc1ccc(S(=O)(=O)N2CCCC2)cc1 (stereo not drawn),7.6
